{"source": "patent US12583836B2", "about": "(Anaxis Pharma Pty Ltd, priority 2020, dated 2026)", "key": {"[1]": {"biological_target": "T1, RIP3 (Homo sapiens, UniProt Q9Y572)", "T1 construct": "purchased DiscoverX (KINOMEscan service); host or cells: E. coli BL21-derived (T7 phage) or HEK293", "T1 sequence (Q9Y572 whole entry)": "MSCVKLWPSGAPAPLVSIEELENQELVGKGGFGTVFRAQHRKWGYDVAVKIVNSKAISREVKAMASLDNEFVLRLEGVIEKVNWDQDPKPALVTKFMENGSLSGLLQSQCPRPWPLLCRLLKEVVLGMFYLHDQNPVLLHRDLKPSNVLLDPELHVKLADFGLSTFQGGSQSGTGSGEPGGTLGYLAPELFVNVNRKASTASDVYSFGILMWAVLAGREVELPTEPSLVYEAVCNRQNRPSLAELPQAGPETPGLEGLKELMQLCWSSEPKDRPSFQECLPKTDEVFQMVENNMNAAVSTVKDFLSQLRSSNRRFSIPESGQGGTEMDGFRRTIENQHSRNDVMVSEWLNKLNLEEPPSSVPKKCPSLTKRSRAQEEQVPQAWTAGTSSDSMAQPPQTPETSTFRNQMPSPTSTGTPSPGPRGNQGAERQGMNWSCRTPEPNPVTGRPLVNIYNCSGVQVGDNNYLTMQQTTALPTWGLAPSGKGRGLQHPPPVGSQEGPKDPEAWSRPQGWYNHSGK", "assay": "KINOMEscan binding assay, RIP3", "conditions": "equilibrium dissociation constant, class symbols", "from_the_text": "The Hill Slope was set to −1."}, "[2]": {"biological_target": "T2, RIP1 (Homo sapiens, UniProt Q13546)", "T2 construct": "purchased DiscoverX (KINOMEscan service); host or cells: E. coli BL21-derived (T7 phage) or HEK293", "T2 sequence (Q13546 1-671)": "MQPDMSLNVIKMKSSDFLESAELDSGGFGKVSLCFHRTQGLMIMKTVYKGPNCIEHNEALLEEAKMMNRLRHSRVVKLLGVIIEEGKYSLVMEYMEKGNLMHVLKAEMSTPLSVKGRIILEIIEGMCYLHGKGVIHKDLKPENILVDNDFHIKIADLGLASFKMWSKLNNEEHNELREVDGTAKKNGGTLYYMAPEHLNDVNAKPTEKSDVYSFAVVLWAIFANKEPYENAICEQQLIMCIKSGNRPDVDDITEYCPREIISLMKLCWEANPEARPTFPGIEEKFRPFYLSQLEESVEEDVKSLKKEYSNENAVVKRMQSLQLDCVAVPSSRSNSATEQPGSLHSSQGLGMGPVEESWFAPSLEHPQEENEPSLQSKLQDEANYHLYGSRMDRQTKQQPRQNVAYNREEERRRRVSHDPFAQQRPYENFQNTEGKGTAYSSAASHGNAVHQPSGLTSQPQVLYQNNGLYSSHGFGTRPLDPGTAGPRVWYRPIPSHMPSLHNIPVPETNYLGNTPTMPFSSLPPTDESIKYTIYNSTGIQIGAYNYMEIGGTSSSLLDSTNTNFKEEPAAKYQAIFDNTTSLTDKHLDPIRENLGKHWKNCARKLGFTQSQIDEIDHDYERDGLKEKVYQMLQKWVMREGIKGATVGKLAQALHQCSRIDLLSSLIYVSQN", "assay": "KINOMEscan binding assay, RIP1", "conditions": "equilibrium dissociation constant, class symbols"}}}
{"smiles": "CCC(Oc1cc(-c2n[nH]c(Nc3cnccn3)c2C(N)=O)ccc1NS(=O)(=O)CC(F)(F)F)c1ccc(F)cc1", "note": "(racemic) [Compound 263, 3-(3-(1-(4-fluorophenyl)propoxy)-4-(2,2,2-trifluoroethylsulfonamido)phenyl)-5-(pyrazin-2-ylamino)-1H-pyrazole-4-carboxamide]", "values": [{"measurement": "Kd", "setting": "[1]", "result": "> 30", "unit": "µM"}]}
{"smiles": "NC(=O)c1c(-c2ccc(NS(=O)(=O)CC(F)(F)F)c(OC(c3ccc(F)cc3)C3CCC3)c2)n[nH]c1Nc1cnccn1", "note": "(stereo not drawn) [Compound 266, 3-{3-[cyclobutyl(4-fluorophenyl)methoxy]-4-(2,2,2-trifluoroethanesulfonamido)phenyl}-5-[(pyrazin-2-yl)amino]-1H-pyrazole-4-carboxamide]", "values": [{"measurement": "Kd", "setting": "[2]", "result": "> 30", "unit": "µM"}, {"measurement": "Kd", "setting": "[1]", "result": "> 30", "unit": "µM"}]}
